{"source": "the supplement of paper PMC9446081", "note": "The whole screen tested about 39,000 compounds, of which about 220 (0.56%) showed activity. This is one part of the list.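 Further: static incubation at 37 °C against the wild-type strain, values averaged over two biological replicates.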"}
{"tested_on": "Escherichia coli K-12 BW25113", "experiment": "relative growth (OD600 normalised to plate interquartile mean) (fraction); higher = less growth inhibition, active = 0.2 or less", "conditions": "50 µM; LB; incubation time: overnight (16-24 h)"}
{"smiles": "C[C@@H]1CN([C@@H](C)CO)C(=O)c2cc(NC(=O)Nc3ccc4c(c3)OCO4)ccc2O[C@@H](C)CCCCO[C@@H]1CN(C)C(=O)C1CCCCC1", "relative growth": "inactive: 1.01"}
{"smiles": "C[C@@H]1CN([C@H](C)CO)C(=O)c2cc(NC(=O)C3CC3)ccc2O[C@@H]1CN(C)S(=O)(=O)c1cn(C)cn1", "relative growth": "inactive: 0.991"}
{"smiles": "O=C(Nc1ccc2c(c1)[C@H]1C[C@H](CC(=O)N3CCc4ccccc4C3)O[C@H](CO)[C@H]1O2)C1CCOCC1", "relative growth": "inactive: 0.999"}
{"smiles": "COc1ccc(NC(=O)N(C)C[C@@H]2OCCCC[C@@H](C)Oc3ccc(NC(=O)Nc4ccccc4)cc3C(=O)N([C@H](C)CO)C[C@H]2C)cc1", "relative growth": "inactive: 1.03"}
{"smiles": "COc1ccccc1S(=O)(=O)N1C[C@H](O)COC[C@H]2O[C@H](CC(=O)O)CC[C@@H]21", "relative growth": "inactive: 0.937"}
{"smiles": "C[C@@H]1CCCCO[C@H](CN(C)Cc2ccc(Cl)c(Cl)c2)[C@@H](C)CN([C@H](C)CO)C(=O)c2cc(N(C)C)ccc2O1", "relative growth": "inactive: 1.02"}
{"smiles": "C[C@H](CO)N1C[C@H](C)[C@@H](CN(C)C(=O)CCC(F)(F)F)OCCCC[C@H](C)Oc2ccc(NC(=O)Nc3ccc4c(c3)OCO4)cc2C1=O", "relative growth": "inactive: 1.01"}
{"smiles": "COc1ccccc1CNC(=O)C[C@H]1C[C@H]2c3cc(NS(=O)(=O)c4ccc(F)cc4)ccc3O[C@H]2[C@@H](CO)O1", "relative growth": "inactive: 1.05"}
{"smiles": "C[C@H](CO)N1C[C@H](C)[C@@H](CN(C)Cc2ccc(C(=O)Nc3ccccc3N)cc2)Oc2c(NC(=O)Nc3ccccc3)cccc2C1=O", "relative growth": "inactive: 1"}
{"smiles": "COc1ccc(-c2cc(=O)c3ccccc3o2)cc1", "relative growth": "inactive: 1.03"}
{"smiles": "COc1ccc(S(=O)(=O)Nc2ccc3c(c2)C(=O)N([C@@H](C)CO)C[C@@H](C)[C@@H](CN(C)C(=O)Nc2cccc4ccccc24)O3)cc1", "relative growth": "inactive: 1.01"}
{"smiles": "CO[C@H]1CN(C)C(=O)c2cc(NS(=O)(=O)c3cn(C)cn3)ccc2OC[C@H](C)N(CC2CC2)C[C@@H]1C", "relative growth": "inactive: 1.02"}
{"smiles": "C[C@@H]1CN([C@@H](C)CO)C(=O)c2cc(C#CC3CCCCC3)cnc2O[C@H]1CN(C)C(=O)c1ccncc1", "relative growth": "inactive: 0.996"}
{"smiles": "C[C@@H]1CCCCO[C@@H](CN(C)C(=O)Nc2ccc3c(c2)OCO3)[C@@H](C)CN([C@H](C)CO)C(=O)c2cc(NC(=O)CCCCCC(=O)Nc3ccccc3N)ccc2O1", "relative growth": "inactive: 0.96"}
{"smiles": "COc1cccc(-n2cc([C@@H](C)N)cn2)c1", "relative growth": "inactive: 1.02"}
{"smiles": "C[C@@H]1CCCCO[C@@H](CN(C)Cc2ccncc2)[C@@H](C)CN([C@H](C)CO)C(=O)c2cc(NC(=O)Nc3cccc4ccccc34)ccc2O1", "relative growth": "inactive: 1.05"}
{"smiles": "C[C@@H]1CCCCO[C@H](CN(C)C(=O)Nc2ccc(F)cc2)[C@H](C)CN([C@H](C)CO)C(=O)c2cc(NC(=O)Nc3ccc(F)cc3)ccc2O1", "relative growth": "inactive: 0.984"}
{"smiles": "CC(C)(C)[S@](=O)N1Cc2cc(C(=O)N3CCCCC3)nc(-c3cccc(-c4ccccc4F)c3)c2[C@@H]1CCO", "relative growth": "inactive: 1"}
{"smiles": "COCCOC(=O)N1C(=O)[C@@]2(c3cc(C#Cc4ccc(OC)cc4)ccc31)[C@H](C(=O)N1CCc3cc(OC)c(OC)cc3C1)[C@H]1C(=O)O[C@H](c3ccccc3)[C@H](c3ccccc3)N1[C@@H]2c1ccccc1OCCO", "relative growth": "inactive: 1.07"}
{"smiles": "Cc1ccc(S(=O)(=O)Nc2ccc3c(c2)CC(=O)N([C@@H](C)CO)C[C@H](C)[C@@H](CN(C)S(=O)(=O)c2cn(C)cn2)O3)cc1", "relative growth": "inactive: 1.01"}
{"smiles": "COc1ccc(S(=O)(=O)Nc2cccc3c2O[C@@H](CN(C)Cc2ccncc2)[C@H](C)CN([C@@H](C)CO)C3=O)cc1", "relative growth": "inactive: 0.983"}
{"smiles": "COc1ccc(S(=O)(=O)Nc2ccc3c(c2)C(=O)N([C@@H](C)CO)C[C@H](C)[C@H](CN(C)C(=O)NC(C)C)O3)cc1", "relative growth": "inactive: 0.988"}
{"smiles": "O=C(C[C@H]1CC[C@@H]2[C@H](COC[C@@H](O)CN2S(=O)(=O)c2cccc(F)c2)O1)NCCCN1CCOCC1", "relative growth": "inactive: 0.966"}
{"smiles": "CC(C)NC(=O)N[C@@H]1C=C[C@@H](CC(=O)NCCN2CCCC2)O[C@@H]1CO", "relative growth": "inactive: 1.01"}
{"smiles": "C[C@@H]1CN([C@@H](C)CO)C(=O)c2cc(NS(=O)(=O)c3ccccc3)ccc2O[C@@H](C)CCCCO[C@@H]1CN(C)Cc1ccc(C(=O)O)cc1", "relative growth": "inactive: 1.02"}
{"smiles": "O=C(Nc1ccc(C(F)(F)F)cc1)Nc1ccc2c(c1)[C@@H]1C[C@H](CC(=O)N3CCc4ccccc4C3)O[C@H](CO)[C@@H]1O2", "relative growth": "inactive: 1.04"}
{"smiles": "C[C@@H]1CN([C@H](C)CO)C(=O)Cc2cc(NS(=O)(=O)c3ccc(F)cc3)ccc2O[C@@H]1CN(C)S(C)(=O)=O", "relative growth": "inactive: 0.995"}
{"smiles": "Cc1noc(C)c1S(=O)(=O)N(C)C[C@@H]1OCc2cn(nn2)CCCC(=O)N([C@H](C)CO)C[C@@H]1C", "relative growth": "inactive: 1.01"}
{"smiles": "C[C@H](CO)N1C[C@H](C)[C@@H](CN(C)S(C)(=O)=O)Oc2ccc(NC(=O)Nc3ccc4c(c3)OCO4)cc2C1=O", "relative growth": "inactive: 0.981"}
{"smiles": "COc1cccc(C#Cc2ccc3c(c2)O[C@H](CN(C)C(C)=O)[C@@H](C)CN([C@@H](C)CO)S3(=O)=O)c1", "relative growth": "inactive: 1.01"}
{"smiles": "O=c1[nH]/c(=C/c2ccco2)c(=O)[nH]/c1=C\\c1ccco1", "relative growth": "inactive: 0.829"}
{"smiles": "Cc1ccc(S(=O)(=O)N(C)C[C@@H]2OCCCC[C@@H](C)Oc3ccc(NC(=O)Nc4ccccc4)cc3C(=O)N([C@@H](C)CO)C[C@@H]2C)cc1", "relative growth": "inactive: 1.02"}
{"smiles": "C[C@@H]1CN([C@H](C)CO)C(=O)Cc2cc(NC(=O)Nc3ccc4c(c3)OCO4)ccc2O[C@H]1CN(C)C(=O)Nc1ccc(C(F)(F)F)cc1", "relative growth": "inactive: 0.984"}
{"smiles": "C[C@H](CO)N1C[C@H](C)[C@H](CN(C)C(=O)c2ccccc2)OCCCC[C@H](C)Oc2ccc(NC(=O)Nc3ccc4c(c3)OCO4)cc2C1=O", "relative growth": "inactive: 0.998"}
{"smiles": "C[C@@H]1CN([C@H](C)CO)C(=O)c2cc(NC(=O)C3CCCCC3)ccc2O[C@@H](C)CCCCO[C@H]1CN(C)C(=O)c1ccncc1", "relative growth": "inactive: 1"}
{"smiles": "C[C@H]1CN([C@@H](C)CO)C(=O)c2cc(NC(=O)Cn3cnnn3)ccc2O[C@H]1CN(C)Cc1ccc2c(c1)OCO2", "relative growth": "inactive: 1"}
